Source: patent publication US5426104A, “Tricyclic carbapenem compounds, methods of preparation and methods of use” (Glaxo SpA, priority 1991, dated 1995)
≈ marks a conversion by molar mass, not a printed value.

System: E coli TEM1 1919E
Experiment: microbe, parasite or virus in culture
Conditions: 18 h
Description: The antibacterial activity of the compounds of the invention may be readily determined using conventional test procedures. For example the antibacterial activity of the compounds of the invention was determined using a standard microtiter broth serial dilution test. In this test the broth was incubated with approximately 10^5 colony forming units of the test organism and incubated at 35° for 18 hours in the presence of test compound. Results obtained using the test procedure are given in the table below and are expressed as minimum inhibitory concentrations (MIC) in micrograms/ml.

Q: CN=CN[C@H]1CCC[C@H]2C1=C(C(=O)O)N1C(=O)[C@H]([C@@H](C)O)[C@@H]21 [Example 2, (4 S,8S,9R,10S,12R)-4-[(3'-methyl)formamidino)-10-(1-hydroxyethyl)-11-oxo-1-azatricyclo[7.2.0.0^3.^8]undec-2-ene-2-carboxylic acid] was tested. Which MIC did it give?
A: 1 µg/mL (≈ 3.25 µM)
